Experimental data reported in the supplement of paper PMC6451100.
Some of the results follow. Values come from read counts of a selection and are noisy.

Biological target: T1, Drosophila AGO2 (FLAG-tagged, S2-R+ lysate) (UniProt Q9VUQ5)
T1 sequence: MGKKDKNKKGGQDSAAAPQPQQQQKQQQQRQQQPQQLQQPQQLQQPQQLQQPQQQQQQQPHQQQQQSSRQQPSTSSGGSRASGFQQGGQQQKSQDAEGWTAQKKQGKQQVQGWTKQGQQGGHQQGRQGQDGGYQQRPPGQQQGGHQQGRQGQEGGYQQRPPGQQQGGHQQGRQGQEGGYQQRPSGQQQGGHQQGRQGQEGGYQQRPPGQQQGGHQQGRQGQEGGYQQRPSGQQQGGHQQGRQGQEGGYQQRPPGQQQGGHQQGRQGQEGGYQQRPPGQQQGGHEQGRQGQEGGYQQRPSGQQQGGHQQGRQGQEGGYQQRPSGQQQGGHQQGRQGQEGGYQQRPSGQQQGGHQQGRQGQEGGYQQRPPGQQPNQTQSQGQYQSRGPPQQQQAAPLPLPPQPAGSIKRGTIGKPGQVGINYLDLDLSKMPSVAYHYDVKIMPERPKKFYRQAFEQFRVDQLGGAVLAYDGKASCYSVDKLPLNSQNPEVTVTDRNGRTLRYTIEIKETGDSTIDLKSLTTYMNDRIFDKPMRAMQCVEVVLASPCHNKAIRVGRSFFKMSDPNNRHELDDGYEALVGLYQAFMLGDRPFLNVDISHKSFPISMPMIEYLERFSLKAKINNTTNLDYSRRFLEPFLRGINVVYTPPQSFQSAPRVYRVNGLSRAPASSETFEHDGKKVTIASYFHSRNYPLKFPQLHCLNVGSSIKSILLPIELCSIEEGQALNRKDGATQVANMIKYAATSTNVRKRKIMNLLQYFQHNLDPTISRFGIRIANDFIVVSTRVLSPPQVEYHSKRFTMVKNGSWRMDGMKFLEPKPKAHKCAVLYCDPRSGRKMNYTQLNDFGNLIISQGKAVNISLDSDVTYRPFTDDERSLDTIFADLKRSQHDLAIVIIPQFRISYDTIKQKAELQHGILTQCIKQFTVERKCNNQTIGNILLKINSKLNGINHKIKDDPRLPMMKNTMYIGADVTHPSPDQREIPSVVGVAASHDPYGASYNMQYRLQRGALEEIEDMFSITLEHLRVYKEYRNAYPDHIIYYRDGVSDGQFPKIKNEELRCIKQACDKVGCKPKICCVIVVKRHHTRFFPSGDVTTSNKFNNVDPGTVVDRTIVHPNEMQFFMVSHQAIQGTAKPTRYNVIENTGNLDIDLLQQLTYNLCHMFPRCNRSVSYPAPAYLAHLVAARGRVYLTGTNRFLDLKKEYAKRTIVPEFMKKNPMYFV
Test: AGO2 loading enrichment factor (IP read count / input read count, not library-size normalised) (ratio); higher = more efficient loading into AGO2
Conditions: randomized region: 5' 5N of miR-317 loop
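Also: Per-sequence enrichment computed with FASTAptamer, counting only reads that carry the expected constant 3′ region.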

Sequence | AGO2 loading enrichment factor
ATGAATGAAATGCAAGCAAG | 0.458
CGCAATGAAATGCAAGCAAG | 0.237
GCACCTGAAATGCAAGCAAG | 0.145
GTTTATGAAATGCAAGCAAG | 0.338
GTCCATGAAATGCAAGCAAG | 0.791
GGCAGTGAAATGCAAGCAAG | 0.256
ACACTTGAAATGCAAGCAAG | 0.0999
CGTACTGAAATGCAAGCAAG | 0.356
GGCCGTGAAATGCAAGCAAG | 1.2
ACTCGTGAAATGCAAGCAAG | 0.35
TATTCTGAAATGCAAGCAAG | 0.325
GCCACTGAAATGCAAGCAAG | 0.255
CTTCCTGAAATGCAAGCAAG | 0.153
CTTTGTGAAATGCAAGCAAG | 0.345
GGCTCTGAAATGCAAGCAAG | 0.463
CGAACTGAAATGCAAGCAAG | 0.427
GTGTATGAAATGCAAGCAAG | 0.349
TGGACTGAAATGCAAGCAAG | 0.581
TTTCATGAAATGCAAGCAAG | 0.405
GACTCTGAAATGCAAGCAAG | 0.354
AATGATGAAATGCAAGCAAG | 0.361
ACTTGTGAAATGCAAGCAAG | 0.111
TCCCTTGAAATGCAAGCAAG | 0.415
GATGCTGAAATGCAAGCAAG | 0.124
AACGCTGAAATGCAAGCAAG | 0.0998
GAAGATGAAATGCAAGCAAG | 0.618

Sequence | AGO2 loading enrichment factor
CTCATTGAAATGCAAGCAAG | 0.564
AATTATGAAATGCAAGCAAG | 0.406
TGTTCTGAAATGCAAGCAAG | 0.261
GTGAATGAAATGCAAGCAAG | 0.509
CTCGCTGAAATGCAAGCAAG | 0.0286
GCTATTGAAATGCAAGCAAG | 0.263
CTCTGTGAAATGCAAGCAAG | 0.313
CCTTATGAAATGCAAGCAAG | 0.308
TGCTGTGAAATGCAAGCAAG | 0.116
GACCTTGAAATGCAAGCAAG | 0.152
ACGATTGAAATGCAAGCAAG | 0.354
GTACGTGAAATGCAAGCAAG | 0.359
ACTGGTGAAATGCAAGCAAG | 0.411
GAATCTGAAATGCAAGCAAG | 0.435
TCGGCTGAAATGCAAGCAAG | 0.141
GCTCTTGAAATGCAAGCAAG | 0.222
ATTATTGAAATGCAAGCAAG | 0.424
CACGTTGAAATGCAAGCAAG | 0.313
TGACCTGAAATGCAAGCAAG | 0.315
TCTTTTGAAATGCAAGCAAG | 0.436
GTCACTGAAATGCAAGCAAG | 0.422
TCTAATGAAATGCAAGCAAG | 0.53
ACCCATGAAATGCAAGCAAG | 0.737
CTGGTTGAAATGCAAGCAAG | 0.513
GTCAGTGAAATGCAAGCAAG | 0.437
AGTCGTGAAATGCAAGCAAG | 0.656

Sequence | AGO2 loading enrichment factor
CCGCGTGAAATGCAAGCAAG | 0.288
ACAGGTGAAATGCAAGCAAG | 0.626
TCGATTGAAATGCAAGCAAG | 0.399
TTGTCTGAAATGCAAGCAAG | 0.212
ATCAATGAAATGCAAGCAAG | 0.525
CCCGGTGAAATGCAAGCAAG | 0.772
GGGGATGAAATGCAAGCAAG | 8.14
AAAAATGAAATGCAAGCAAG | 0.437
TGTCTTGAAATGCAAGCAAG | 0.0361
TGGTCTGAAATGCAAGCAAG | 1.11
TTACCTGAAATGCAAGCAAG | 0.416
CAGACTGAAATGCAAGCAAG | 0.362
TCCCCTGAAATGCAAGCAAG | 0.156
TTGAATGAAATGCAAGCAAG | 0.515
ATCACTGAAATGCAAGCAAG | 0.403
TGGGGTGAAATGCAAGCAAG | 8.14
ATATTTGAAATGCAAGCAAG | 0.553
AGACCTGAAATGCAAGCAAG | 0.395
CCAGGTGAAATGCAAGCAAG | 0.603
GGAAATGAAATGCAAGCAAG | 0.655
GAAAGTGAAATGCAAGCAAG | 0.411
GATGTTGAAATGCAAGCAAG | 0.315
CCGAGTGAAATGCAAGCAAG | 0.444
TAGGGTGAAATGCAAGCAAG | 1.97
CATGCTGAAATGCAAGCAAG | 0.0841
ACCTATGAAATGCAAGCAAG | 0.359

Sequence | AGO2 loading enrichment factor
ACATATGAAATGCAAGCAAG | 0.387
ATAGCTGAAATGCAAGCAAG | 0.17
ACGTGTGAAATGCAAGCAAG | 0.342
ACGACTGAAATGCAAGCAAG | 0.428
ATCTTTGAAATGCAAGCAAG | 0.359
TTGGTTGAAATGCAAGCAAG | 0.346
GACGCTGAAATGCAAGCAAG | 0.147
CATCCTGAAATGCAAGCAAG | 0.257
CGGGATGAAATGCAAGCAAG | 2.51
GTATATGAAATGCAAGCAAG | 0.382
CAGGTTGAAATGCAAGCAAG | 0.306
CCGGATGAAATGCAAGCAAG | 0.993
GGAAGTGAAATGCAAGCAAG | 2.16
GCGTCTGAAATGCAAGCAAG | 0.319
CTATATGAAATGCAAGCAAG | 0.442
CCCGTTGAAATGCAAGCAAG | 0.256
GTTGGTGAAATGCAAGCAAG | 0.857
TGCATTGAAATGCAAGCAAG | 0.0972
GATATTGAAATGCAAGCAAG | 0.378
GCTTCTGAAATGCAAGCAAG | 0.0112
ATTAATGAAATGCAAGCAAG | 0.479
TAGTATGAAATGCAAGCAAG | 0.352
AAGACTGAAATGCAAGCAAG | 0.346
TCGCATGAAATGCAAGCAAG | 0.19
CCTGGTGAAATGCAAGCAAG | 0.394
GAACCTGAAATGCAAGCAAG | 0.479

Sequence | AGO2 loading enrichment factor
TCGCCTGAAATGCAAGCAAG | 0.399
GCGCATGAAATGCAAGCAAG | 0.126
GCTAATGAAATGCAAGCAAG | 0.182
GCTTATGAAATGCAAGCAAG | 0.0182
CTCTTTGAAATGCAAGCAAG | 0.523
GTGCTTGAAATGCAAGCAAG | 0.877
GCGAATGAAATGCAAGCAAG | 0.325
TACTATGAAATGCAAGCAAG | 0.362
CGCGTTGAAATGCAAGCAAG | 0.361
ACCCTTGAAATGCAAGCAAG | 0.143
CAAATTGAAATGCAAGCAAG | 0.347
GGAGCTGAAATGCAAGCAAG | 0.347
TCAGATGAAATGCAAGCAAG | 0.483
AGCGCTGAAATGCAAGCAAG | 0.114
ATAATTGAAATGCAAGCAAG | 0.399
TACATTGAAATGCAAGCAAG | 0.379
GCTCCTGAAATGCAAGCAAG | 0.217
CCGTCTGAAATGCAAGCAAG | 0.369
AGTAATGAAATGCAAGCAAG | 0.401
AGCAGTGAAATGCAAGCAAG | 0.146
GAGCTTGAAATGCAAGCAAG | 0.158
TCGAGTGAAATGCAAGCAAG | 0.436
